Legend:
[1] = target: T1, human PD-1 (amino acids 1-185) on transfected Jurkat cells (human, UniProt Q15116 fragment); assay: flow cytometry, Jurkat+hPD-1 cells
T1 construct: also called hPD-1; Jurkat+hPD-1 cell line

[2] = target: T2, human PD-1 on Jurkat cells (Jurkat+hPD-1) (human, UniProt Q15116 fragment); assay: flow cytometry on Jurkat cells expressing hPD-1
T2 construct: extracellular domain and a portion of the transmembrane domain, stably expressed on Jurkat cells

Row | fold increase in EC50 against the anti-hPD-1 antibody without the attenuated hIL-2 moiety [1] [fold] | EC50 [2] [nM] | Binder
1 | < 2 |  | OMC.1.B6-hIgG4-L6-hIL-2 (D20A/R38E) (other) heavy: EVQLLESGGGLVQPGGSLRLSCAASGFTFSSNYMSWVRQAPGKGLEWVSAISSSGGTIFYADSVKGRFTISRDNSKNTLYLQMNSLRAEDTAVYYCAKHKWNAVYYDGMDVWGQGTTVTVSSASTKGPSVFPLAPCSRSTSESTAALGCLVKDYFPEPVTVSWNSGALTSGVHTFPAVLQSSGLYSLSSVVTVPSSSLGTKTYTCNVDHKPSNTKVDKRV[not shown - about 350 residues with a human IgG4 Fc] light: QSVLTQPPSASGTPGQRVTISCSGSNSNIGRNLVNWYQQLPGTAPKLLIYTIDQRPSGVPDRFSGSKSGTSASLVISGLQSEDEADYYCAAWDGSLNAWVFGGGTKLTVLGQPKAAPSVTLFPPSSEELQANKATLVCLISDFYPGAVTVAWKADSSPVKAGVETTTPSKQSNNKYAASSYLSLTPEQWKSHRSYSCQVTHEGSTVEKTVAPTECS
2 |  | 5.63 | OMC.1.B6-hIgG4-L6-hIL-2 (D20A/R38E) (other, anti-hPD-1 IgG4 with attenuated hIL-2 fused to the heavy chain C-terminus) heavy: EVQLLESGGGLVQPGGSLRLSCAASGFTFSSNYMSWVRQAPGKGLEWVSAISSSGGTIFYADSVKGRFTISRDNSKNTLYLQMNSLRAEDTAVYYCAKHKWNAVYYDGMDVWGQGTTVTVSSASTKGPSVFPLAPCSRSTSESTAALGCLVKDYFPEPVTVSWNSGALTSGVHTFPAVLQSSGLYSLSSVVTVPSSSLGTKTYTCNVDHKPSNTKVDKRV[not shown - about 350 residues with a human IgG4 Fc] light: QSVLTQPPSASGTPGQRVTISCSGSNSNIGRNLVNWYQQLPGTAPKLLIYTIDQRPSGVPDRFSGSKSGTSASLVISGLQSEDEADYYCAAWDGSLNAWVFGGGTKLTVLGQPKAAPSVTLFPPSSEELQANKATLVCLISDFYPGAVTVAWKADSSPVKAGVETTTPSKQSNNKYAASSYLSLTPEQWKSHRSYSCQVTHEGSTVEKTVAPTECS
3 | < 2 |  | OMC.1.D6-hIgG4-L6-hIL-2 (D20A/R38E) (other) heavy: EVQLLESGGGLVQPGGSLRLSCAASGFTFSDYYMSWVRQAPGKGLEWVSAISSSGGTIFYADSVKGRFIISRDNSKNTLYLQMNSLRAEDTAVYYCAKHKWNDVYYDAMDVWGQGTTVTVSSASTKGPSVFPLAPCSRSTSESTAALGCLVKDYFPEPVTVSWNSGALTSGVHTFPAVLQSSGLYSLSSVVTVPSSSLGTKTYTCNVDHKPSNTKVDKRV[not shown - about 350 residues with a human IgG4 Fc] light: QSVLTQPPSASGTPGQRVTISCSGSNSNIGRNLVNWYQQLPGTAPKLLIYTVDQRPSGVPDRFSGSKSGTSASLAISGLASEDEADYYCAAWDSSLNSWVFGGGTKLTVLGQPKAAPSVTLFPPSSEELQANKATLVCLISDFYPGAVTVAWKADSSPVKAGVETTTPSKQSNNKYAASSYLSLTPEQWKSHRSYSCQVTHEGSTVEKTVAPTECS
4 | < 2 |  | G12-hIgG4-df-hIL-2 (D20A/R38E) (other) heavy: DSLVESGGGLVQPGGSLRLSCAASGFTFDISAMSWVRQAPGKGLEWVSTISGSAYSTYYADSVKGRFTISRDNSKSTLYLQMNSLRAEDTAVYYCAREIFSDYWGLGTLVTVSSASTKGPSVFPLAPCSRSTSESTAALGCLVKDYFPEPVTVSWNSGALTSGVHTFPAVLQSSGLYSLSSVVTVPSSSLGTKTYTCNVDHKPSNTKVDKRV[not shown - about 350 residues with a human IgG4 Fc] light: QSVLTQPPSASGTPGQRVTISCSGSTSNIGRESVYWYQQLPGTAPKLLIYLNSQRPSGVPDRFSGSKSGTSASLAISGLQSEDVADYYCGTWDDSLNGWVFGGGTKLTVLGQPKAAPSVTLFPPSSEELQANKATLVCLISDFYPGAVTVAWKADSSPVKAGVETTTPSKQSNNKYAASSYLSLTPEQWKSHRSYSCQVTHEGSTVEKTVAPTECS
